Read-outs that look alike come from different tables or passages of the source. At least one compound was matched to its structure with a doubt left. Starred links: 1 amine or outer side, 2 acyl side, 3 side chain; linkers in the order of their positions; H or OH if unused. Non-standard residues stand in square brackets, D forms with d. Groups on a side chain read outwards from the residue. No end group written: not given here. *: point of attachment. C20 diacid = O=C(O)CCCCCCCCCCCCCCCCCCC(=O)*; γGlu = O=C(O)[C@H](CCC(=O)[*:2])N[*:1]; Aib = CC(C)(N)C(=O)O
Experiments:
Assay type in all cases: cell-based
[1] = target: T1, hGLP1R (Homo sapiens, UniProt P43220); assay: hGLP1R CreLuc reporter gene assay in 0.5% and 100% plasma
T1 construct: expressed in transfected cells; host or cells: HEK-293 cells carrying a CRE-luciferase reporter gene
How it was run: (§1)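 HEK cells (GLP-1R, NPY2R) or CHO cells (GIPR) carrying a CRE-luciferase reporter, incubated 4 h at 37 °C with peptides in HBSS/20 mM HEPES pH 7.4 plus 0.5% human plasma, or in 100% plasma. Luminescence read; EC50 from 8-point variable-slope sigmoid fits.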

[2] = target: T2, hGIPR (Homo sapiens, UniProt P48546); assay: hGIPR CreLuc reporter gene assay in 0.5% and 100% plasma
T2 construct: expressed in transfected cells; host or cells: CHO cells carrying a CRE-luciferase reporter gene
T2 sequence (P48546 22-466): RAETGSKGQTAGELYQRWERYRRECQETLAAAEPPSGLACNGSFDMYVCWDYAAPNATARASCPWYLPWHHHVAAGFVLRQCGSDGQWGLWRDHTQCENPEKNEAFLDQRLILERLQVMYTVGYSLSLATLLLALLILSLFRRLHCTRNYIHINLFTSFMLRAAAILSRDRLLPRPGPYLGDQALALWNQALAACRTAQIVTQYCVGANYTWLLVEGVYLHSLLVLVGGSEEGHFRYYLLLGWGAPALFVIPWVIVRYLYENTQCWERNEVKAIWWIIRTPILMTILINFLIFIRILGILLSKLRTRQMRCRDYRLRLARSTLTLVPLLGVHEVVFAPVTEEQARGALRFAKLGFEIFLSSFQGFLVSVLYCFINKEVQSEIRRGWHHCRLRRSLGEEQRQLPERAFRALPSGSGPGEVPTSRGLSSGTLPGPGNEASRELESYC
How it was run: as §1

[3] = target: T3, hNPY2R (Homo sapiens, UniProt P49146); assay: hNPY2R CreLuc reporter gene assay in 0.5% and 100% plasma
T3 construct: expressed in transfected cells; host or cells: HEK-293 cells carrying a CRE-luciferase reporter gene
T3 sequence (P49146 1-381): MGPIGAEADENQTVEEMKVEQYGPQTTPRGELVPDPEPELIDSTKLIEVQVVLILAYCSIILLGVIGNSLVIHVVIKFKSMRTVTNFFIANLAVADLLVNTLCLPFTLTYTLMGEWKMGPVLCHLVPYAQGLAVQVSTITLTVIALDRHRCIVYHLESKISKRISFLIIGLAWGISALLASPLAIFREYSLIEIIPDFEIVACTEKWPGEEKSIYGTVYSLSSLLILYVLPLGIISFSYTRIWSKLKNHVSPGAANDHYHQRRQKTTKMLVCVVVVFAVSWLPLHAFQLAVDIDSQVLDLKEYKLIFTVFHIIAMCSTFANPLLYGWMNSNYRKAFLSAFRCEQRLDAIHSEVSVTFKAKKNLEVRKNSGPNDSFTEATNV
How it was run: as §1

[4] = 0.5% human plasma, read-out: hGLP1R 0.5% hP
[5] = 0.5% human plasma, read-out: hGIPR 0.5% hP
[6] = 0.5% human plasma, read-out: hNPY2R 0.5% hP
[7] = 100% human plasma, read-out: hNPY2R 100% hP

T1 sequence (P43220 24-463): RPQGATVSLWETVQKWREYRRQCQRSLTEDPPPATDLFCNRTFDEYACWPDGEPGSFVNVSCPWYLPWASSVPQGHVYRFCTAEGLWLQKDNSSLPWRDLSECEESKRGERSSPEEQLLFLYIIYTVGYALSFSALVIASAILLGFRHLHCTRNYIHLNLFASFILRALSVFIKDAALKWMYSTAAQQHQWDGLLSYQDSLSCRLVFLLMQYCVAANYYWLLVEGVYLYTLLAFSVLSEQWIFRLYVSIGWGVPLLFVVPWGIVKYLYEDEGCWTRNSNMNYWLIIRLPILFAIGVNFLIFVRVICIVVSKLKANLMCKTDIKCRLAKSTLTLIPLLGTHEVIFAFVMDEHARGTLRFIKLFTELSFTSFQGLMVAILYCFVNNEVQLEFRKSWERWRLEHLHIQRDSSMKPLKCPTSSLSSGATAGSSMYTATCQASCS

CC[C@H](C)[C@H](NC(=O)[C@H](CC(C)C)NC(=O)[C@H](Cc1c[nH]c2ccccc12)NC(=O)[C@H](CCC(=O)O)NC(=O)[C@@H](NC(=O)[C@H](Cc1ccccc1)NC(=O)[C@H](C)NC(=O)C(C)(C)NC(=O)[C@H](CCC(N)=O)NC(=O)[C@H](C)NC(=O)[C@H](CCC(N)=O)NC(=O)[C@H](CCCCN)NC(=O)[C@H](CCC(=O)O)NC(=O)[C@H](CC(C)C)NC(=O)C(C)(C)NC(=O)[C@@H](NC(=O)[C@H](CO)NC(=O)[C@H](Cc1ccc(O)cc1)NC(=O)[C@H](CC(=O)O)NC(=O)[C@H](CO)NC(=O)[C@@H](NC(=O)[C@H](Cc1ccccc1)NC(=O)[C@@H](NC(=O)CNC(=O)[C@H](CCC(=O)O)NC(=O)C(C)(C)NC(=O)[C@@H](N)Cc1ccc(O)cc1)[C@@H](C)O)[C@@H](C)O)[C@@H](C)CC)C(C)C)C(=O)N[C@@H](CCCCNC(=O)[C@@H](N)CCCCNC(=O)CC[C@H](NC(=O)[C@H](CCC(=O)O)NC(=O)CC[C@H](NC(=O)CC[C@H](NC(=O)CC[C@H](NC(=O)CC[C@H](NC(=O)CCCCCCCCCCCCCCCCCCC(=O)O)C(=O)O)C(=O)O)C(=O)O)C(=O)O)C(=O)O)C(=O)NCC(=O)NCC(=O)N1CCC[C@H]1C(=O)N[C@@H](CCC(=O)O)C(=O)N[C@@H](CCC(=O)O)C(=O)NCC(=O)N[C@@H](C)C(=O)N[C@@H](CO)C(=O)N[C@@H](CC(C)C)C(=O)N[C@@H](CCCNC(=N)N)C(=O)N[C@@H](Cc1c[nH]cn1)C(=O)N[C@@H](Cc1ccc(O)cc1)C(=O)N[C@@H](Cc1ccc(O)cc1)C(=O)N[C@@H](CC(N)=O)C(=O)N[C@@H](Cc1c[nH]c2ccccc12)C(=O)N[C@@H](CC(C)C)C(=O)N[C@H](C(=O)N[C@@H](CCCNC(=N)N)C(=O)N[C@@H](CCC(N)=O)C(=O)N[C@@H](CCCNC(=N)N)C(=O)N[C@@H](Cc1ccc(O)cc1)C(N)=O)[C@@H](C)O [Compound 285, Y-Aib-E-G-T-F-T-S-D-Y-S-I-Aib-L-E-K-Q-A-Q-Aib-A-F-V-E-W-L-I-K(1,3)-GGPEEGASLRHYYNWLTRQRY-NH2.C20DA-gGlu-gGlu-gGlu-gGlu-Glu-gGlu-eLys(1,2)]
EC50 [1, 4]: 0.34 nM
EC50 ([1]; 100% human plasma, read-out: hGLP1R 100% hP): 11.6 nM
EC50 [2, 5]: 1.57 nM
EC50 [3, 6]: 15.8 nM
EC50 [3, 7]: 48.8 nM

Y[Aib]EGTFTSDYSI[Aib]LEKQAQ[Aib]AFVEWLIK([γGlu-γGlu-γGlu-Glu-γGlu-C20 diacid])GGPSSPASLRHYYNWLTRQRY-NH2 [Compound 178, Y-Aib-E-G-T-F-T-S-D-Y-S-I-Aib-L-E-K-Q-A-Q-Aib-A-F-V-E-W-L-I-K(1,3)-GGPSSPASLRHYYNWLTRQRY-NH2.C20DA-gGlu-Glu-gGlu-gGlu-gGlu(1,2)]
EC50 [1, 4]: 0.08 nM
EC50 [2, 5]: 0.12 nM
EC50 [3, 6]: 13.3 nM
EC50 [3, 7]: 115 nM

CC[C@H](C)[C@H](NC(=O)[C@H](CC(C)C)NC(=O)[C@H](Cc1c[nH]c2ccccc12)NC(=O)[C@H](CCC(N)=O)NC(=O)[C@@H](NC(=O)[C@H](Cc1ccccc1)NC(=O)[C@H](C)NC(=O)C(C)(C)NC(=O)[C@H](CCC(N)=O)NC(=O)[C@H](C)NC(=O)[C@H](CCC(N)=O)NC(=O)[C@H](CCCCN)NC(=O)[C@H](CCC(=O)O)NC(=O)[C@H](CC(C)C)NC(=O)C(C)(C)NC(=O)[C@@H](NC(=O)[C@H](CO)NC(=O)[C@H](Cc1ccc(O)cc1)NC(=O)[C@H](CC(=O)O)NC(=O)[C@H](CO)NC(=O)[C@@H](NC(=O)[C@H](Cc1ccccc1)NC(=O)[C@@H](NC(=O)CNC(=O)[C@H](CCC(=O)O)NC(=O)C(C)(C)NC(=O)[C@@H](N)Cc1ccc(O)cc1)[C@@H](C)O)[C@@H](C)O)[C@@H](C)CC)C(C)C)C(=O)N[C@@H](CCCCNC(=O)[C@@H](N)CCCCNC(=O)[C@H](CCC(=O)O)NC(=O)CC[C@H](NC(=O)CC[C@H](NC(=O)CC[C@H](NC(=O)CC[C@H](NC(=O)CC[C@H](NC(=O)CCCCCCCCCCCCCCCCCCC(=O)O)C(=O)O)C(=O)O)C(=O)O)C(=O)O)C(=O)O)C(=O)NCC(=O)NCC(=O)N1CCC[C@H]1C(=O)N[C@@H](CO)C(=O)N[C@@H](CCC(=O)O)C(=O)N1CCC[C@H]1C(=O)N[C@@H](C)C(=O)N[C@@H](CO)C(=O)N[C@@H](CC(C)C)C(=O)N[C@@H](CCCNC(=N)N)C(=O)N[C@@H](Cc1c[nH]cn1)C(=O)N[C@@H](Cc1ccc(O)cc1)C(=O)N[C@@H](Cc1ccc(O)cc1)C(=O)N[C@@H](CC(N)=O)C(=O)N[C@@H](Cc1c[nH]c2ccccc12)C(=O)N[C@@H](CC(C)C)C(=O)N[C@H](C(=O)N[C@@H](CCCNC(=N)N)C(=O)N[C@@H](CCC(N)=O)C(=O)N[C@@H](CCCNC(=N)N)C(=O)N[C@@H](Cc1ccc(O)cc1)C(N)=O)[C@@H](C)O [Compound 101, Y-Aib-E-G-T-F-T-S-D-Y-S-I-Aib-L-E-K-Q-A-Q-Aib-A-F-V-Q-W-L-I-K(1,3)-GGPSEPASLRHYYNWLTRQRY-NH2.C20DA-gGlu-gGlu-gGlu-gGlu-gGlu-Glu-eLys(1,2)]
EC50 [1, 4]: 0.1 nM
EC50 [2, 5]: 0.15 nM
EC50 ([2]; 100% human plasma, read-out: hGIPR 100% hP): 1.43 nM
EC50 [3, 6]: 12.1 nM
EC50 [3, 7]: 26.5 nM

CC[C@H](C)[C@H](NC(=O)[C@H](CC(C)C)NC(=O)[C@H](Cc1c[nH]c2ccccc12)NC(=O)[C@H](CCC(=O)O)NC(=O)[C@@H](NC(=O)[C@H](Cc1ccccc1)NC(=O)[C@H](C)NC(=O)C(C)(C)NC(=O)[C@H](CCC(N)=O)NC(=O)[C@H](C)NC(=O)[C@H](CCC(N)=O)NC(=O)[C@H](CCCCN)NC(=O)[C@H](CCC(=O)O)NC(=O)[C@H](CC(C)C)NC(=O)C(C)(C)NC(=O)[C@@H](NC(=O)[C@H](CO)NC(=O)[C@H](Cc1ccc(O)cc1)NC(=O)[C@H](CC(=O)O)NC(=O)[C@H](CO)NC(=O)[C@@H](NC(=O)[C@H](Cc1ccccc1)NC(=O)[C@@H](NC(=O)CNC(=O)[C@H](CCC(=O)O)NC(=O)C(C)(C)NC(=O)[C@@H](N)Cc1ccc(O)cc1)[C@@H](C)O)[C@@H](C)O)[C@@H](C)CC)C(C)C)C(=O)N[C@@H](CCCCNC(=O)[C@@H](N)CCCCNC(=O)CC[C@H](NC(=O)CC[C@H](NC(=O)CC[C@H](NC(=O)CC[C@H](NC(=O)[C@H](CCC(=O)O)NC(=O)CC[C@H](NC(=O)CCCCCCCCCCCCCCCCC(=O)O)C(=O)O)C(=O)O)C(=O)O)C(=O)O)C(=O)O)C(=O)NCC(=O)NCC(=O)N1CCC[C@H]1C(=O)N[C@@H](CO)C(=O)N[C@@H](CCC(=O)O)C(=O)NCC(=O)N[C@@H](C)C(=O)N[C@@H](CO)C(=O)N[C@@H](CC(C)C)C(=O)N[C@@H](CCCNC(=N)N)C(=O)N[C@@H](Cc1c[nH]cn1)C(=O)N[C@@H](Cc1ccc(O)cc1)C(=O)N[C@@H](Cc1ccc(O)cc1)C(=O)N[C@@H](CC(N)=O)C(=O)N[C@@H](Cc1c[nH]c2ccccc12)C(=O)N[C@@H](CC(C)C)C(=O)N[C@H](C(=O)N[C@@H](CCCNC(=N)N)C(=O)N[C@@H](CCC(N)=O)C(=O)N[C@@H](CCCNC(=N)N)C(=O)N[C@@H](Cc1ccc(O)cc1)C(N)=O)[C@@H](C)O [Compound 293, Y-Aib-E-G-T-F-T-S-D-Y-S-I-Aib-L-E-K-Q-A-Q-Aib-A-F-V-E-W-L-I-K(1,3)-GGPSEGASLRHYYNWLTRQRY-NH2.C18DA-gGlu-Glu-gGlu-gGlu-gGlu-gGlu-eLys(1,2)]
EC50 [1, 4]: 0.18 nM
EC50 [2, 5]: 0.26 nM
EC50 [3, 6]: 13.6 nM
